About 530 (0.13%) of roughly 410,000 compounds were called active. Inconclusive means that the source gave no clear call. Such entries were picked first, then a sample of the others. Calls follow the shape of the dose curve; as a rule, active = well fitted inhibition curve with a large enough effect; inconclusive = small, poorly fitted or top-dose-only effect, or another doubt; inactive = no such curve, though single readings can be large or run the other way. Potencies beside an inconclusive call are fits to weak or partial responses and may not hold up.
Assay: qHTS of GLP-1 Receptor Inverse Agonists: Cytotox Screen
Settings: HEK293 cAMP-luciferase reporter cells, luminescence, 24 h; activity change, negative = inhibition: at 38.3 µM (top of the series) unless noted
Outline: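 MLSMR compounds, 24 hr on cells at 37 deg C/5% CO2; luminescence after luciferase reagent (12 min RT). Inhibition counted as the undesired cytotoxic outcome.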
In the case of Oc1c(C(c2ccc(Cl)cc2)N2CCCC2)cc(Cl)c2cccnc12 (configuration not stated), the Potency is reported as inconclusive: 10 µM [inhibitor, partial curve]. For CCC1CCCCN1C(=O)Cn1c(=O)n(CCCCCC(=O)NCc2ccc(F)cc2)c(=O)c2sccc21 (configuration not stated), the “activity change, negative = inhibition” value was inactive: -0.785%. For CCn1c(=O)c2cc(C(=O)NCCCN(C)Cc3ccccc3)sc2c2ccccc21, the Potency was inconclusive: 28.2 µM [inhibitor, single point]. In the case of CCN(Cc1ccccc1)C(c1ccncc1)c1nnnn1C(C)(C)C (configuration not stated), the “activity change, negative = inhibition” value is reported as inactive: 0.97%. For O=C(Nc1ccc2nc(-c3ccco3)c(-c3ccco3)nc2c1)N1CCCCCC1, the “activity change, negative = inhibition” value was inactive: 371%. For O=C(CSc1ncc(C(F)(F)F)cc1Cl)N1CCN(S(=O)(=O)c2ccccc2)CC1, the Potency was inconclusive: 4.47 µM [inhibitor, partial curve, poor fit]. For Cc1nnc(-c2ccc(N3CCCCCC3)c([N+](=O)[O-])c2)o1, the “activity change, negative = inhibition” value was inactive: -4.67%. For Cn1c(C23CC4CC(CC(C4)C2)C3)n[nH]c1=S, the Potency was inconclusive: 14.1 µM [inhibitor, single point]. In the case of COc1cccc(-c2c(-c3ccccc3OC)ncn2Cc2cccc(-c3ccccc3)c2)c1, the Potency is reported as inconclusive: 22.4 µM [inhibitor, single point]. With COc1c(C(=O)Nc2ccc(Cc3ccncc3)cc2)ccc2ccccc12 the Potency was inconclusive: 28.2 µM [inhibitor, single point]. In the case of Cc1cccc(C)c1N(CC(=O)N1CCN(c2ccccc2F)CC1)S(C)(=O)=O, the “activity change, negative = inhibition” value is reported as inactive: 8.39%. In the case of CN(C)S(=O)(=O)c1cccc(-c2nn(-c3ccccc3)cc2/C=C(\C#N)c2nc3ccccc3[nH]2)c1, the “activity change, negative = inhibition” value is reported as inactive: 51.4%. In the case of CCN(CC(=O)Nc1ccc(NC(C)=O)cc1)C(=O)CCCOc1ccc(C(C)(C)C)cc1, the Potency is reported as inconclusive: 10 µM [inhibitor, single point]. In the case of Cc1ccccc1C(=O)Nc1ccc2nc(Nc3cccc(C(F)(F)F)c3)cc(C)c2c1, the Potency is reported as inconclusive: 14.1 µM [inhibitor, single point]. For COc1ccc(C(=O)/C=C/Nc2ccc(S(=O)(=O)Nc3onc(C)c3C)cc2)cc1, the Potency was inconclusive: 8.91 µM [inhibitor, partial curve, poor fit]. For COc1cccc(CNCCc2c[nH]c3ccccc23)c1OCc1ccccc1, the Potency was inconclusive: 12.6 µM [inhibitor, single point]. In the case of COC(=O)c1cccc(Nc2c3c(nc4ccccc24)CCC3)c1, the Potency is reported as inconclusive: 11.2 µM [inhibitor, single point]. With CCOC(=O)c1csc(NC(=O)c2ccccc2)n1 the “activity change, negative = inhibition” value was inactive: 4.64%. With COc1ccccc1Nc1c2c(nc3ccc(NC(=O)c4cccc(OC)c4OC)cc13)CCCC2 the Potency was inconclusive: 12.6 µM [inhibitor, partial curve, poor fit]. For Cc1ccc(N(Cc2ccccc2)C(=O)c2ccc(Cl)c(S(=O)(=O)N3CCOCC3)c2)cc1, the “activity change, negative = inhibition” value was inactive: 7.6%. In the case of COC(=O)[C@H](Cc1ccccc1)NC(=O)N1CCN(Cc2ccccc2)CC1, the Potency is reported as inconclusive: 12.6 µM [inhibitor, single point]. For CCCCOc1ccccc1C(=O)Nc1nonc1-c1ccccc1, the “activity change, negative = inhibition” value was inactive: 2.23%. In the case of CC(=O)c1c(C)[nH]c(C(=O)Nc2ccc(F)cc2F)c1C, the “activity change, negative = inhibition” value is reported as inactive: -25.7%. In the case of CC(C)CC(=O)NCC1(N(C)C)CCCCC1, the “activity change, negative = inhibition” value is reported as inactive: -0.179%. For CCS(=O)(=O)N1Cc2ccccc2CC1C(=O)Nc1nc2ccc(C)cc2s1 (configuration not stated), the Potency was inconclusive: 3.98 µM [inhibitor, single point]. For COc1ccc2cc3c(N)c(C(=O)NCc4ccco4)sc3nc2c1, the “activity change, negative = inhibition” value was inactive: 6.87%. For CCOc1cc(-c2noc(-c3cccnc3)n2)ccc1OC, the “activity change, negative = inhibition” value was inactive: 1.07%. In the case of COc1cccc(C(=O)O/N=C(\N)c2ccccn2)c1, the “activity change, negative = inhibition” value is reported as inactive: -6.76%. In the case of Cc1n[nH]c(=O)nc1N/N=C/c1cccs1, the Potency is reported as inconclusive: 14.1 µM [inhibitor, single point]. For O=C(NCc1cccnc1)/C(=C\c1ccc(-c2ccc(Cl)c(Cl)c2)o1)S(=O)(=O)c1ccccc1, the Potency was inconclusive: 5.62 µM [inhibitor, full curve, poor fit]. In the case of COc1ccc(Nc2nc(N3CCCC3)nc3ccccc23)c(OC)c1, the Potency is reported as inconclusive: 28.2 µM [inhibitor, single point]. For COc1ccc(-c2cc(C)no2)cc1S(=O)(=O)N1CCCN(Cc2ccc(F)cc2)C1, the “activity change, negative = inhibition” value was inactive: 4.32%. For Cc1nonc1OCCN1CCN(c2ccc([N+](=O)[O-])cc2)CC1, the Potency was inconclusive: 10 µM [inhibitor, single point]. For COc1ccc(NC(=O)C(C)n2nnc3sc(-c4ccccc4)cc3c2=O)cc1Cl (configuration not stated), the “activity change, negative = inhibition” value was inactive: -13.4%. In the case of Cc1ccc(C(=O)Nc2ccc(Nc3ccccc3)cc2)cc1Br, the Potency is reported as inconclusive: 22.4 µM [inhibitor, single point]. For COc1cccc(NC(=O)C(=O)NCCc2csc(-c3ccc(C(F)(F)F)cc3)n2)c1, the “activity change, negative = inhibition” value was inactive: -0.978%. For CC1(C)Cc2c(sc(NC(=O)C(=O)N3CCOCC3)c2C(N)=O)CO1, the Potency was inconclusive: 10 µM [inhibitor, single point]. With CCOc1ccc(CCNC(=O)c2cc(=O)[nH]c3ccc(S(=O)(=O)N4CCCCC4)cc23)cc1OCC the “activity change, negative = inhibition” value was inactive: 1.76%. In the case of O=C(/C=C/c1ccccc1)Nc1cccc(C(=O)NCCc2ccccc2)c1, the Potency is reported as inconclusive: 12.6 µM [inhibitor, single point]. In the case of O=C(COC(=O)CNC(=O)C1CCCCC1)Nc1ccccc1, the “activity change, negative = inhibition” value is reported as inactive: -7.5%. For Cc1ccc2nc(C3CCCCC3)c(Cc3ccccc3)n2c1, the Potency was inconclusive: 22.4 µM [inhibitor, single point]. For C[C@H](O)[C@@H]1CN2CCc3c([nH]c4ccc(-c5ccc6c(c5)OCO6)cc34)[C@@H]2C[C@@H]1N(C)C(=O)Nc1cc(Cl)cc(Cl)c1, the Potency was inconclusive: 11.2 µM [inhibitor, partial curve, poor fit]. In the case of S=C(NCc1ccccc1)Nc1ccc(Cl)cc1, the Potency is reported as inconclusive: 28.2 µM [inhibitor, single point]. For Cn1cc(C(=O)c2ccc(Cl)cc2Cl)cc1C(=O)N/N=C(\N)COc1ccc(F)cc1, the Potency was inconclusive: 28.2 µM [inhibitor, single point]. With CCOc1ccccc1OCCN1CCC(Cc2ccccc2)CC1 the Potency was inconclusive: 28.2 µM [inhibitor, single point]. With Cc1cccc(NC(=S)N/N=C/c2ccc([N+](=O)[O-])s2)c1 the Potency was inconclusive: 28.2 µM [inhibitor, single point]. With COc1ccc(N(C(=O)Cn2nnc3ccccc32)C2(C(=O)NC3CCCC3)CCCCC2)cc1 the Potency was inconclusive: 10 µM [inhibitor, single point]. With Cc1ccc(NC(=S)N/N=C2\CC(C)(C)Oc3ccc(O)cc32)cc1 the Potency was inconclusive: 28.2 µM [inhibitor, single point]. With C/C(=N\NC(=S)Nc1cccc(C)c1)c1cc2ccccc2o1 the Potency was inconclusive: 5.01 µM [inhibitor, single point]. In the case of COc1ccccc1N1CCN(c2cc(C)nc3c(-c4ccc(Cl)cc4)c(C)nn23)CC1, the “activity change, negative = inhibition” value is reported as inactive: 8.69%. For COc1cc(/C=C/C(=O)N2CCc3ccccc3C2)cc(OC)c1OC, the “activity change, negative = inhibition” value was inactive: 3.72%. In the case of O=C(c1ccc2c(c1)OCO2)N1CCC2(CC1)Oc1ccc(F)cc1C(=O)C21CC(c2ccc(Cl)cc2)=NO1 (configuration not stated), the “activity change, negative = inhibition” value is reported as inactive: -11.8%. With O=C(O)c1ccc(Cl)c(S(=O)(=O)N(Cc2ccccc2)c2ccccc2Cl)c1 the Potency was inconclusive: 20 µM [inhibitor, single point]. For CC(C)(C)S(=O)N1Cc2cc(C(=O)NCc3ccc(Oc4ccccc4)cc3)nc(-c3cccc(-c4cc5ccccc5o4)c3)c2[C@H]1CCO (some centres not stated), the Potency was inconclusive: 28.2 µM [inhibitor, single point]. In the case of O=C1/C(=C/c2ccc(Cl)cc2)SC(=S)N1CCC(=O)N1CCCCC1CCO (configuration not stated), the Potency is reported as inconclusive: 31.6 µM [inhibitor, partial curve, poor fit]. For COC(=O)c1ccccc1NC(=O)Cn1nc(C(F)(F)F)c2c1CCCC2, the “activity change, negative = inhibition” value was inactive: 1.02%. In the case of CC(=O)c1cc(N2CCOCC2)ccc1[N+](=O)[O-], the Potency is reported as inconclusive: 10 µM [inhibitor, single point]. With CN(CC(=O)Nc1ccc(F)c(F)c1F)C(=O)CCCSc1nc2ccccc2[nH]1 the Potency was inconclusive: 17.8 µM [inhibitor, single point]. For COc1cc(C(=O)NCC(=O)N2CCN(S(=O)(=O)c3cc(C)ccc3C)CC2)cc(OC)c1OC, the Potency was inconclusive: 31.6 µM [inhibitor, single point]. For CC(=O)Nc1c(-c2ccc(F)cc2)nc2ccccn12, the Potency was inconclusive: 28.2 µM [inhibitor, partial curve, poor fit]. With COc1ccc(/C=C2/C(=O)OCc3cc(OC)c(OC)cc32)cc1 the Potency was inconclusive: 1 µM [inhibitor, full curve]. With CC(C)c1nc2ccc(C(=O)NCCCN3CCN(c4ccc(F)cc4)CC3)cc2o1 the “activity change, negative = inhibition” value was inactive: -7.65%. For COc1ccc(C(=O)NC2CCN(C(=S)Nc3cccc(C)c3)CC2)cc1, the Potency was inconclusive: 3.55 µM [inhibitor, partial curve, poor fit]. With CCN1CCc2c(sc(NC(=O)c3ccc(S(=O)(=O)N4CCCC4)cc3)c2C(=O)NC)C1 the Potency was inconclusive: 28.2 µM [inhibitor, single point]. With C[C@@H]1O[C@@H](O[C@@H]2C(=O)c3c(O)cc(O)cc3O[C@H]2c2ccc(O)c(O)c2)[C@H](O)[C@H](O)[C@H]1O the Potency was inconclusive: 0.501 µM [inhibitor, full curve, poor fit]. With CCCc1c(C(=O)N2CCN(c3ccccc3OC)CC2)cnn1-c1ccccc1 the Potency was inconclusive: 28.2 µM [inhibitor, single point]. In the case of CCOC(=O)Cc1c(C)nc2c(-c3ccccc3)c(-c3ccccc3)[nH]n2c1=O, the Potency is reported as inconclusive: 28.2 µM [inhibitor, single point].

Reference: PubChem BioAssay AID624418 (National Center for Advancing Translational Sciences (NCATS), 2012)
% is scaled to controls: 0 for no effect and ±100 for the full control effect; potency is read from the fitted curve at half-maximal effect.
